# According to the supplement of paper PMC10126150:
# Values marked as one replicate rest on one cluster of the flow cell; about a third of the high ones do not repeat.
# System: ATP
# Experiment: switch fluorescence ratio, 500 uM ATP over buffer (Cy3 cluster intensity, sum of 5 cycles each) (fold (ratio)); higher = stronger signal-on switching upon ATP binding; sequences stand for … in TCGTCGGCAGCGTCAGATGTGTATAAGAGACAGTTTTTTTTTTTTTTTTTTTTTTTTT…TC
# Details: aptamer strand: ATP DNA aptamer (quencher-CACCTGGGGGAGTATTGCGGAGGAAGG + anchor), 100 nM annealed; ATP concentration: 500 uM; one replicate
# Outline: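 Values give the fluorescence ratio for each switch-domain sequence, averaged from per-cluster ratios of summed target-cycle to summed buffer-cycle Cy3 intensity. The Cy3-labelled switching-strand clusters sat on a modified Illumina MiSeq flow-cell, were annealed to 100 nM quencher-labelled ATP aptamer, and were imaged in selection buffer, then after 15 min with 500 uM ATP at 22 °C. Five cycles ran with NaOH stripping and re-annealing between them, and clusters outside 100-1000 RFU were excluded.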
# 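Further: ATP exposure 15 min at 22 °C before imaging.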
row,Sequence,switch fluorescence ratio
1,TTGAAATTGC,1.01
2,TTGAACATGC,1.17
3,TTGAACCAA,1.03
4,TTGAACCAGC,1.03
5,TTGAACCATT,1
6,TTGAACCCGT,0.978
7,TTGAACCCTG,1
8,TTGAACCGCT,1.01
9,TTGAAGTTA,1.04
10,TTGAAGTTGG,0.965
11,TTGAATGGG,0.998
12,TTGAATTATA,0.993
13,TTGACAAAGG,0.981
14,TTGACACTA,1.08
15,TTGACAGGTA,1.06
16,TTGACCCAAG,0.992
17,TTGACTGTCC,1.41
18,TTGACTTACA,1.31
19,TTGACTTACC,1.17
20,TTGAGAACAA,0.974
21,TTGAGAACGG,1
22,TTGAGAGTGC,0.992
23,TTGAGATCTA,0.958
24,TTGAGCATGT,1.03
25,TTGAGCCAGT,1.06

row,Sequence,switch fluorescence ratio
1,TTGAGCCATG,1.06
2,TTGAGCCCCC,1.06
3,TTGAGCCTCG,1.01
4,TTGAGGAACA,1.04
5,TTGAGGGTGT,1.06
6,TTGAGGTAC,1.07
7,TTGAGGTTGC,0.965
8,TTGAGTAAAT,1.03
9,TTGAGTATTG,1.03
10,TTGAGTCTGA,0.955
11,TTGAGTGAGA,1.04
12,TTGAGTTAGG,0.945
13,TTGAGTTGGC,0.989
14,TTGAGTTGTA,1.02
15,TTGATAAACC,1.06
16,TTGATAAATA,1.37
17,TTGATACCTC,1
18,TTGATAGAGT,1.01
19,TTGATCAAAC,1.07
20,TTGATCAGCT,0.974
21,TTGATCATGT,0.994
22,TTGATGATTA,1
23,TTGATGCGAG,0.974
24,TTGATGGTTT,1.01
25,TTGATGTAAT,0.978

row,Sequence,switch fluorescence ratio
1,TTGATTACCG,1.04
2,TTGATTCGCG,1.04
3,TTGATTGCTG,1.02
4,TTGATTGTGC,0.996
5,TTGCAAAGTT,1.01
6,TTGCAACGGA,1.02
7,TTGCAAGGCA,1.01
8,TTGCACGC,1.05
9,TTGCAGTAAA,0.948
10,TTGCAGTCAC,1.15
11,TTGCAGTCCC,1.34
12,TTGCAGTTCT,1.09
13,TTGCATATTA,1.02
14,TTGCATGTTC,1.08
15,TTGCCACAAG,1.01
16,TTGCCAGCAC,1.11
17,TTGCCATATC,1.05
18,TTGCCCTGTT,1.02
19,TTGCCGGCCT,1.06
20,TTGCCTCTGG,0.978
21,TTGCGAGTAA,1.03
22,TTGCGAGTCG,1.01
23,TTGCGATCCC,1.08
24,TTGCGATCCG,1.01
25,TTGCGCTAAA,1.02

row,Sequence,switch fluorescence ratio
1,TTGCGGATTC,1.06
2,TTGCGGTGGA,1.06
3,TTGCGTCTTG,0.978
4,TTGCGTGGTT,0.978
5,TTGCGTTGGA,1.03
6,TTGCTACCCA,1.06
7,TTGCTCGGGT,1.02
8,TTGCTGCCCA,0.993
9,TTGCTTGGG,1.03
10,TTGCTTTCCG,1.04
11,TTGGAAGTCT,0.943
12,TTGGACTTCC,1.24
13,TTGGATCCAG,1.04
14,TTGGCAAGGC,1.33
15,TTGGCCCTAT,1.02
16,TTGGCCGGAC,0.976
17,TTGGCCTCCT,1.01
18,TTGGCGCGA,1.11
19,TTGGCGGACT,0.992
20,TTGGCGGCGT,0.99
21,TTGGCGGTAT,1.02
22,TTGGCGGTCA,1.04
23,TTGGCGTCTG,0.953
24,TTGGCTAAAA,0.999
25,TTGGCTAGCA,0.989

row,Sequence,switch fluorescence ratio
1,TTGGCTATGT,0.992
2,TTGGCTCTTA,0.988
3,TTGGCTGACC,1.05
4,TTGGGAAAGC,0.974
5,TTGGGAATG,1
6,TTGGGATAAG,1
7,TTGGGCCGGA,1.02
8,TTGGGCTGTG,1.01
9,TTGGGGCGAG,1.01
10,TTGGGGTCAA,0.964
11,TTGGGGTTG,0.945
12,TTGGGTGATG,1.05
13,TTGGGTGTGT,1.05
14,TTGGGTTAAT,1.03
15,TTGGGTTCAG,0.958
16,TTGGTAACGT,1.01
17,TTGGTACCCG,1.05
18,TTGGTCACCG,1.02
19,TTGGTCTCTG,0.958
20,TTGGTGCACG,0.973
21,TTGGTTAATT,1.03
22,TTGGTTACGC,1.04
23,TTGGTTATTA,0.997
24,TTGGTTATTG,1.02
25,TTGGTTCCGG,1.01

row,Sequence,switch fluorescence ratio
1,TTGGTTGGG,0.943
2,TTGTAAGGTA,1.02
3,TTGTAATTGG,1.02
4,TTGTACCGCT,1.14
5,TTGTAGAAAG,1.01
6,TTGTAGCTAC,1.24
7,TTGTAGGTGT,1.07
8,TTGTAGTCAA,1.19
9,TTGTAGTTGT,1.09
10,TTGTATGCTA,1.04
11,TTGTATGGAA,0.976
12,TTGTATTCCC,1.01
13,TTGTCCAGAC,1.03
14,TTGTCCTATG,0.988
15,TTGTCGTAC,0.973
16,TTGTCTCGTT,0.984
17,TTGTCTCTAT,1.01
18,TTGTCTGGGT,0.963
19,TTGTCTGTGT,0.993
20,TTGTGAATAG,0.983
21,TTGTGAGGCT,1.13
22,TTGTGATATT,1.01
23,TTGTGCAGTT,1.06
24,TTGTGCGATG,1.09
25,TTGTGCTGAT,0.985

row,Sequence,switch fluorescence ratio
1,TTGTGCTT,0.967
2,TTGTGGCGGC,0.978
3,TTGTGTTACT,1.02
4,TTGTGTTCTG,0.992
5,TTGTTAACAC,0.96
6,TTGTTAGGTC,1.05
7,TTGTTAGTCC,1.01
8,TTGTTCCCCG,1.06
9,TTGTTCGGT,0.971
10,TTGTTGAGT,0.986
11,TTGTTGGTAT,0.993
12,TTGTTTTGGC,0.986
13,TTTAAAATGA,0.985
14,TTTAAAGCAT,1.04
15,TTTAACCGCT,1.2
16,TTTAACCGGG,0.985
17,TTTAACGCTG,0.951
18,TTTAACTGCT,0.989
19,TTTAAGAACA,1
20,TTTAAGATCC,0.997
21,TTTAATGGTG,1.14
22,TTTAATTCTC,0.994
23,TTTACAATCC,1.03
24,TTTACCAATG,0.978
25,TTTACCTAGG,0.959

row,Sequence,switch fluorescence ratio
1,TTTACCTATG,1.04
2,TTTACGAGGA,1.02
3,TTTACGGCTC,1.22
4,TTTACTACAC,1.15
5,TTTACTGCCG,0.955
6,TTTACTGTCG,1.02
7,TTTAGAAGCC,0.986
8,TTTAGACCGA,1.03
9,TTTAGACTCT,0.956
10,TTTAGCGAGA,0.988
11,TTTAGCGCTT,0.966
12,TTTAGCTTAC,1.55
13,TTTAGGACGG,1.03
14,TTTAGGATGT,1
15,TTTAGGATTC,0.976
16,TTTAGGCCTT,1
17,TTTAGTACAA,1.01
18,TTTATAGCCC,0.99
19,TTTATATGGG,1.01
20,TTTATCCAGA,1.01
21,TTTATCCCCG,0.999
22,TTTATGTTGT,0.995
23,TTTATTTTAG,1.05
24,TTTCAAGTAG,1.06
25,TTTCACATAT,1.03
